Test results: article PMC3748711
Results are given in words; binding and its absence hold for the method and conditions named. For some assays here: In cells and extracts the contact can be indirect. Some results given as binding are weak or reduced against the parent protein; the word gives no strength. For some assays here: Where a sequence is shown, tags or fusion partners need not be part of it.

Protein sequences, listed by entry. Tags and fused reporters are not part of them. Lines headed by an entry give the natural chain unless they say otherwise; changes in a name come on top. Chains listed by the source or under a name are the forms on record and can include a tag or linker. Residues count along the entry.
UniProt Q8VI56: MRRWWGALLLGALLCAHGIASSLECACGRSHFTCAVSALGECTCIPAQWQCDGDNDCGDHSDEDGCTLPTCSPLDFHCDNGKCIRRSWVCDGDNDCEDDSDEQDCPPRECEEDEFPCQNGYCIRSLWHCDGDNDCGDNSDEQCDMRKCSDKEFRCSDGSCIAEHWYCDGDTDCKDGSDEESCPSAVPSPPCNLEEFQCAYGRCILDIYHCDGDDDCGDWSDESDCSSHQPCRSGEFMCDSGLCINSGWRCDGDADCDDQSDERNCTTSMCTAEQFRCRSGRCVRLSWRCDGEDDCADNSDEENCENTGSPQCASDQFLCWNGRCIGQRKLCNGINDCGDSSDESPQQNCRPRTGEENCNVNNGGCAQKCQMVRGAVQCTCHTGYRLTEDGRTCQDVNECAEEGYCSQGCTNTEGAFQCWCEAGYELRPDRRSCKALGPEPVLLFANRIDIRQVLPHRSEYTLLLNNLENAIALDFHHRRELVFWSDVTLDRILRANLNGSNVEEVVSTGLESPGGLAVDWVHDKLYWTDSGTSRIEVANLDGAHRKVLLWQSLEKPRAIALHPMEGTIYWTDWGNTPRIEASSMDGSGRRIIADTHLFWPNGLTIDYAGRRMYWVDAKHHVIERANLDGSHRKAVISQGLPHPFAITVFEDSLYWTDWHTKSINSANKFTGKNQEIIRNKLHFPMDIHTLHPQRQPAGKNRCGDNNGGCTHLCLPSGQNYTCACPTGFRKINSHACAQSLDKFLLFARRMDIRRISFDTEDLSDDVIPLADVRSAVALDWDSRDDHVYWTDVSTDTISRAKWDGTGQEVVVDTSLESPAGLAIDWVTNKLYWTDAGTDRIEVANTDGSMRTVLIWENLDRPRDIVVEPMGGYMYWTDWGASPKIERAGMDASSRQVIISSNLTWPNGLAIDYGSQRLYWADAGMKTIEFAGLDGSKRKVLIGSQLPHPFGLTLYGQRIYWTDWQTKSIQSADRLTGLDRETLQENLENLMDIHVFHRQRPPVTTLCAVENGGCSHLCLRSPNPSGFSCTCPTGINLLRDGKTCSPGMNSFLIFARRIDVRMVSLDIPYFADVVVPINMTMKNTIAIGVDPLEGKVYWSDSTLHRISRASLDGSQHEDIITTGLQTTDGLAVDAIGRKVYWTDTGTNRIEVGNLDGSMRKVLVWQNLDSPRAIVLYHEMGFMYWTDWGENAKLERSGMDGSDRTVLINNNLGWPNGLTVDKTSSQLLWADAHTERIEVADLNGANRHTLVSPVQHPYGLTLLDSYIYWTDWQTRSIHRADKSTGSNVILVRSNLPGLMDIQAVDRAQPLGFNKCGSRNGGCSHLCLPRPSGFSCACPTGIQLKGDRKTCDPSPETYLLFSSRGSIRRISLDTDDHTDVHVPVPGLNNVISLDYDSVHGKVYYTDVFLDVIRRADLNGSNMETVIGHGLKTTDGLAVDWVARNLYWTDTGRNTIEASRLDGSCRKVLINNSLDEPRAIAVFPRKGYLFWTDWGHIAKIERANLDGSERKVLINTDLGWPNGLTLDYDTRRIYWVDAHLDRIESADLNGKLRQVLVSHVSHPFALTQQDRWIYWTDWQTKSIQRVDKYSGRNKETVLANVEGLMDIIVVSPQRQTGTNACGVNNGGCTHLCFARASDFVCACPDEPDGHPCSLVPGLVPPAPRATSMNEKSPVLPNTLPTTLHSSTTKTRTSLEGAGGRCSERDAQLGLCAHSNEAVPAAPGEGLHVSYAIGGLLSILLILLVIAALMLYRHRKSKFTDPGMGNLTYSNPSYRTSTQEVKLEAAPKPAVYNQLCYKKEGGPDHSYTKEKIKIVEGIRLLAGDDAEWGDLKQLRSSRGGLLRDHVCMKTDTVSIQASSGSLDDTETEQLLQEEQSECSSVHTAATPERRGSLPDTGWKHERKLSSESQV
full length LRP4 expressed on HEK293T cells: residues 21-1905 of Q8VI56
LRP4-Fc (extracellular domain of mouse LRP4, residues 1-1650, fused to the constant region of human IgG): residues 21-1650 of Q8VI56
UniProt Q91ZX7, residues 20-4545: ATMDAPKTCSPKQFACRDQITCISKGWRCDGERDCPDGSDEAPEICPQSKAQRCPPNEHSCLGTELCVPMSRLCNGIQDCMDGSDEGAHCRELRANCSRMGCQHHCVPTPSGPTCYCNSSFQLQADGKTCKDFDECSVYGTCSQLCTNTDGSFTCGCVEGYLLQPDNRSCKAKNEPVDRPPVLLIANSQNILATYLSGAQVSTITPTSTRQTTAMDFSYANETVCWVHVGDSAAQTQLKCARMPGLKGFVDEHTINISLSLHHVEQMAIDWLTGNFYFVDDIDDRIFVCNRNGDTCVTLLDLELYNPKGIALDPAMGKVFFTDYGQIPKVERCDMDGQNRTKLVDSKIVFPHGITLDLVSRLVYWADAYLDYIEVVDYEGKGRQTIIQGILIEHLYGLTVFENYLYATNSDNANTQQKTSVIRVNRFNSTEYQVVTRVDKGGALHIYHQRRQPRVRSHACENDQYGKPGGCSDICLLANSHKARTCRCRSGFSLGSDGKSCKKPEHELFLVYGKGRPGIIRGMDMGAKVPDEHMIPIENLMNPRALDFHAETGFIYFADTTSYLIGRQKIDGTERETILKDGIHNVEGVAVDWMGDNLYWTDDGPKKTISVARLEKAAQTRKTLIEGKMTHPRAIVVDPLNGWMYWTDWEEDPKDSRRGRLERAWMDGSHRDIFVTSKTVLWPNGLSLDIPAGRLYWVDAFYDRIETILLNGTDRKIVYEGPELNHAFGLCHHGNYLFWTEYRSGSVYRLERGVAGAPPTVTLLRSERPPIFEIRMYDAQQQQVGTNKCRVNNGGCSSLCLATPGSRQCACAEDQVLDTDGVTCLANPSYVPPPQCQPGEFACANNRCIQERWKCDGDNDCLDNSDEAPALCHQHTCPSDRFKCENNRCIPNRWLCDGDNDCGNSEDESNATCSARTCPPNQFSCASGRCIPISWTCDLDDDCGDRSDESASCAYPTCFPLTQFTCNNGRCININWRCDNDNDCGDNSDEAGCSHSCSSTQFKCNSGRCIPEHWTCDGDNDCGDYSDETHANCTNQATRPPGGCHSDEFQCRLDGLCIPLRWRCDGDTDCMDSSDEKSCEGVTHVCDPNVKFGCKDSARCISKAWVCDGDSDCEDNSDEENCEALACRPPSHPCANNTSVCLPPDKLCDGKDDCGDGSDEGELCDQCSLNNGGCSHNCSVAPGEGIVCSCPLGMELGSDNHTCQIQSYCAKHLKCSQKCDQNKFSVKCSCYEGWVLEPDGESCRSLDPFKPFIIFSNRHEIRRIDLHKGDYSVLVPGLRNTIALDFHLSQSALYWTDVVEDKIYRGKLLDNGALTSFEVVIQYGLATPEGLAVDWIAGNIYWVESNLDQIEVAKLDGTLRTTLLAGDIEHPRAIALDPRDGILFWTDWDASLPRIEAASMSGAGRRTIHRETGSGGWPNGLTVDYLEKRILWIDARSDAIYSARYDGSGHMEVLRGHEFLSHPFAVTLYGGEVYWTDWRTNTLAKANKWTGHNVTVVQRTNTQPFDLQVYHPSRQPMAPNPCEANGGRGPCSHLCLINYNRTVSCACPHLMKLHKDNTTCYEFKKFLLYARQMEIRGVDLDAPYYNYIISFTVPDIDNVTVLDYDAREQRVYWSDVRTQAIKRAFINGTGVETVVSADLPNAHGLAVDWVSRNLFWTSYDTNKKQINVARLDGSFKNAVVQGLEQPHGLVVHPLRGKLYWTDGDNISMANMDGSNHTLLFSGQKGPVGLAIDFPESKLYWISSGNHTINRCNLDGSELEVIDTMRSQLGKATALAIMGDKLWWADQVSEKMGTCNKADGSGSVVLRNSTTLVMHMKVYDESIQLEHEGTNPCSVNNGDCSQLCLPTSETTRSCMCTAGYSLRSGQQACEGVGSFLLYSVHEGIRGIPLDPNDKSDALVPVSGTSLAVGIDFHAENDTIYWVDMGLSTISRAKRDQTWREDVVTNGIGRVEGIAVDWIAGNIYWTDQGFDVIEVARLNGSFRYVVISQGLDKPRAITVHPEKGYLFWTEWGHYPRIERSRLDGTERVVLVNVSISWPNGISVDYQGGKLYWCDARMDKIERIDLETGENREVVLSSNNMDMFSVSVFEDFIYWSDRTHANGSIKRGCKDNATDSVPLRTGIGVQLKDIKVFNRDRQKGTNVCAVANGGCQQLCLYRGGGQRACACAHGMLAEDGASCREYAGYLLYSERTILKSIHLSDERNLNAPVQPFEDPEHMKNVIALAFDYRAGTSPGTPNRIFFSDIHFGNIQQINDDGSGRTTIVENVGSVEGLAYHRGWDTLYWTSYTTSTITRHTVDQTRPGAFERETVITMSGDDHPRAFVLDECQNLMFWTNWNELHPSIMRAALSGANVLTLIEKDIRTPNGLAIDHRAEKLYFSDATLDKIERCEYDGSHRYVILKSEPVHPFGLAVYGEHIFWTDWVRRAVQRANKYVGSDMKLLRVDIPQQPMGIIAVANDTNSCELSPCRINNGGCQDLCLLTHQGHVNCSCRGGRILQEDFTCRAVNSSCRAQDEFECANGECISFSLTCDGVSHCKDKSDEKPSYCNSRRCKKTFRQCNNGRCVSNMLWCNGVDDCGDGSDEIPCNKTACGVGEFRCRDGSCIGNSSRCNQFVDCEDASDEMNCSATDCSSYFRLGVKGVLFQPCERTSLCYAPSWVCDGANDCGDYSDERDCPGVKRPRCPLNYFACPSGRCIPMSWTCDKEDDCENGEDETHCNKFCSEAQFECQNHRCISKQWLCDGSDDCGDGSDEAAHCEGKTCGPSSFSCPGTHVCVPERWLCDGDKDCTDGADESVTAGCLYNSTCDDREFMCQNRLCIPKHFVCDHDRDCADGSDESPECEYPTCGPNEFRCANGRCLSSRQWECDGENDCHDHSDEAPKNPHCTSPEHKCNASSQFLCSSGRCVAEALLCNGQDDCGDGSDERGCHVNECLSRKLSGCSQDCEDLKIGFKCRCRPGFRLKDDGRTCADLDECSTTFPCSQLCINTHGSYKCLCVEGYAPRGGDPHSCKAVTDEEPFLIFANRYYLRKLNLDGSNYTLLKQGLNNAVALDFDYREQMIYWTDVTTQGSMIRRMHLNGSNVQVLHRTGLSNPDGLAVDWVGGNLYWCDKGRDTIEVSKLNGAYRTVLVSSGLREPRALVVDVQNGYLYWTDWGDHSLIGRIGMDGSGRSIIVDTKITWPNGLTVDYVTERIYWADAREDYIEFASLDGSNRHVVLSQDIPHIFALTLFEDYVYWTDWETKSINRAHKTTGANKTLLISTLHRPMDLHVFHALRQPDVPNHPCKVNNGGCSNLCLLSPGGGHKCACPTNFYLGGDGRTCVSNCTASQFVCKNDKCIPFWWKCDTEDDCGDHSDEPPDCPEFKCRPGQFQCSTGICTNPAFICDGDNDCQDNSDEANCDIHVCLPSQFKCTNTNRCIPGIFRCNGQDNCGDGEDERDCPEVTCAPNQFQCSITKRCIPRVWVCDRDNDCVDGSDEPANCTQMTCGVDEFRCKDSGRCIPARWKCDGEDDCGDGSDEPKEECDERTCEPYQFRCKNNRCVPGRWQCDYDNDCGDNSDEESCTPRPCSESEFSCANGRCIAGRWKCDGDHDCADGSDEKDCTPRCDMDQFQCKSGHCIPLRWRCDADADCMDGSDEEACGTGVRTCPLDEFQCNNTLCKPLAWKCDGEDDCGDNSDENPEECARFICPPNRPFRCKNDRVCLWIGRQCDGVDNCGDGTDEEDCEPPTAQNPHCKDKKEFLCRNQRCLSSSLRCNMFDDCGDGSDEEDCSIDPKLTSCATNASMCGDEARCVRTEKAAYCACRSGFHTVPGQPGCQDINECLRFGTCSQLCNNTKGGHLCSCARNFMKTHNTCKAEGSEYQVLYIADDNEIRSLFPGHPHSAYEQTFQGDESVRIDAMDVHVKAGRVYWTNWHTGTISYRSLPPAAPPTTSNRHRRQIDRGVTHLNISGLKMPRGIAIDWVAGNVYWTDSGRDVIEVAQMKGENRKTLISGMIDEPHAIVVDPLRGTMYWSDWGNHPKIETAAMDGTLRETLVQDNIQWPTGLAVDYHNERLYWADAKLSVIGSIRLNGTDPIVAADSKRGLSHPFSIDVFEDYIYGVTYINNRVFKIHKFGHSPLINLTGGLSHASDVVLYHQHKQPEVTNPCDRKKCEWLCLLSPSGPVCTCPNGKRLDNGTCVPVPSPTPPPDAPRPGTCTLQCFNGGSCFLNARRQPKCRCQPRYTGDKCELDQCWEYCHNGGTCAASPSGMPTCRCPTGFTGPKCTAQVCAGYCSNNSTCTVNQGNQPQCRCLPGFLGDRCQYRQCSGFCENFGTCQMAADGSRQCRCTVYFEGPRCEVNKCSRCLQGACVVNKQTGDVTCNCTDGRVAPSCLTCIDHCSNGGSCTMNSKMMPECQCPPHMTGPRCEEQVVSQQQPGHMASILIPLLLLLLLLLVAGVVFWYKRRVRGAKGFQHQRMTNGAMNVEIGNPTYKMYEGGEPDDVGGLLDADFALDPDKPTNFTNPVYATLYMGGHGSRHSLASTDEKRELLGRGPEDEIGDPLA

What was measured:
[1] = molecular target: T1, RAP-Fc (full length RAP fused to the constant region of human IgG) (UniProt P55302); assay: condition: agrin 100 ng/ml; 1 µg in a final volume of 1 ml; pull-down; Fc fusion proteins from 1.5 ml conditioned medium on Protein A-agarose beads, incubated with 1 µg neuronal agrin in DMEM with 0.1% BSA, 4 hr, 4°C; Western blot with anti-agrin; only the binder purified
T1 sequence: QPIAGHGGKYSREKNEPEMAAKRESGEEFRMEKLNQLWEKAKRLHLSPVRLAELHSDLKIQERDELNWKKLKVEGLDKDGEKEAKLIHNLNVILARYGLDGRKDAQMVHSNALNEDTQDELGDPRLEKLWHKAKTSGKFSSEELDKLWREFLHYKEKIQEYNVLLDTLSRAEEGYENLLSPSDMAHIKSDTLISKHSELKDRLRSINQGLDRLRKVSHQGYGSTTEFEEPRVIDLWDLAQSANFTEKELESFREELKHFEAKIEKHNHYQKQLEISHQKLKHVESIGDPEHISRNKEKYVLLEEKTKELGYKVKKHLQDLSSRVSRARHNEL

[2] = molecular target: LRP4-Fc (extracellular domain of mouse LRP4, residues 1-1650, fused to the constant region of human IgG) (mouse) (UniProt Q8VI56); assay: pull-down; Fc fusion proteins from 1.5 ml conditioned medium on Protein A-agarose beads, incubated with 1 µg neuronal agrin in DMEM with 0.1% BSA, 4 hr, 4°C; Western blot with anti-agrin; only the binder purified
[3] = molecular target: LRP4 (endogenous, mouse embryonic muscle) (mouse (endogenous in embryonic muscle)) (UniProt Q8VI56); assay: co-IP; E14.5 mouse hind limb muscle extract (PBS, 5 mM EDTA, 5 mM EGTA, 1% digitonin); anti-LRP4, anti-ApoER2 or anti-LRP1 overnight at 4°C, Protein A Dynabeads; immunoblot
[4] = molecular target: Apoer2 (endogenous, mouse embryonic muscle) (mouse (endogenous in embryonic muscle)) (UniProt Q924X6); assay: as above
[5] = molecular target: LRP1 (endogenous, mouse embryonic muscle) (mouse (endogenous in embryonic muscle)) (UniProt Q91ZX7); assay: as above
[6] = molecular target: full length LRP4 expressed on HEK293T cells (UniProt Q8VI56); assay: cell aggregation assay; HEK293T cells expressing APP (green) and LRP4 (red) mixed in suspension in aggregation buffer with CaCl2, 30 min, 37°C; aggregates >3000 µm^2 scored
[7] = molecular target: APP-Fc (APP695 extracellular domain, residues 1-596, fused to the constant region of human IgG) (UniProt P12023); assay: pull-down; 100 ng purified APP-Fc on Protein A-agarose beads, incubated with 100 ng purified MBP-LRP4 LBD in PBS with 0.1% BSA, 4 hr, 4°C; Western blot with anti-MBP; both purified
[8] = molecular target: APP-Fc (APP695 extracellular domain, residues 1-596, fused to the constant region of human IgG) (UniProt P12023); assay: pull-down; 100 ng purified APP-Fc on Protein A-agarose beads, incubated with 100 ng purified MBP-LRP4LBD and 0-1000 ng neuronal agrin in PBS with 0.1% BSA, 4 hr, 4°C; immunoblot with anti-MBP, anti-agrin, anti-Fc; both purified

In the case of “Recombinant rat agrin C-terminal fragment, Ala1153 Pro1959 (Pro1788-Ser1798del) (from UniProt P25304 1153-1959) (domain or fragment)”, the binding [1] is reported as “no binding” and the binding [2] is reported as “binds”.
“APP (endogenous, mouse embryonic muscle) (from UniProt P12023 18-770)” was tested, and the binding [3] was “binds”, the binding [4] was “no binding” and the binding [5] was “no binding”.
In the case of “full length APP expressed on HEK293T cells (from UniProt P12023 18-770)”, the binding [6] is reported as “binds”.
For “MBP-LRP4LBD (LRP4 ligand binding domain, aa 27-349, fused to maltose-binding protein) (from UniProt Q8VI56 27-349) (domain or fragment)”, the binding [7] was “binds” and the binding [8] was “no binding (condition: with 1000 ng/ml agrin)”.
